No constants are given. Whether binding was seen depends on the method and setting. For some of these results: Binding seen in cells or lysates may run through a third protein. Some entries that bind do so weakly or less than the wild type. For some of these results: Sequences can lack the tags named with a protein.
T1: hematopoietic PBX–interacting protein (HPIP), endogenous (human (endogenous in MDA-MB231)) (UniProt Q96AQ6)
T1 sequence: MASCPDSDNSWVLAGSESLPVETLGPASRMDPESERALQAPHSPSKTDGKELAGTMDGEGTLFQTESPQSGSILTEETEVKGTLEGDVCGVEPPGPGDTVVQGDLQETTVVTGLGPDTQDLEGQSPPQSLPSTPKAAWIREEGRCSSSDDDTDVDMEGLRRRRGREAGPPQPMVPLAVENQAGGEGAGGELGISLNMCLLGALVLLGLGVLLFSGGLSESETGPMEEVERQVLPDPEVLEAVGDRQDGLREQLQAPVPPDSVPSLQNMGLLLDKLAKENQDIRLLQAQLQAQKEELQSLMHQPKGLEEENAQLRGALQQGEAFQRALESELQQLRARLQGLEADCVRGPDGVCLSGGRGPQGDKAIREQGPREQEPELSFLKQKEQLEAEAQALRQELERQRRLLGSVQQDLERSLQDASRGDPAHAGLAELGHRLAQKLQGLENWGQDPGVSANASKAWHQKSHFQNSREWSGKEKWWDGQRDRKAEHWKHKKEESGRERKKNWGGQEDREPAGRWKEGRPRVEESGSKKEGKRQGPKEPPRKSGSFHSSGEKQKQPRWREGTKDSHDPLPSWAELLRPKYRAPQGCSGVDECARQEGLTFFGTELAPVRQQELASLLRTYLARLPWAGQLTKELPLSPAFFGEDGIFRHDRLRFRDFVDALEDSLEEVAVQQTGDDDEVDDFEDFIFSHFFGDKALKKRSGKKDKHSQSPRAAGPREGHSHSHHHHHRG

Sequences of proteins named here, by UniProt entry; tags and fusion partners are left off.
UniProt P20339: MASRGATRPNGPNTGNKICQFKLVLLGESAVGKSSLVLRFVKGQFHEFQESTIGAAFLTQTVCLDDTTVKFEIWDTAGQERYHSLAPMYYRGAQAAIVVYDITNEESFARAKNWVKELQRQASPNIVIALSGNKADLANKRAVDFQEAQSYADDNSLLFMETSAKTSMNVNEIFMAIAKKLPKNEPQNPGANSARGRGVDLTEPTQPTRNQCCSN

T2: GST-CC2 (coiled-coil domain 2 of HPIP) (UniProt Q96AQ6)
T2 sequence: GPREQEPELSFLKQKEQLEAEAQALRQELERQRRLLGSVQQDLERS

T3: GST-CC1 (coiled-coil domain 1 of HPIP) (UniProt Q96AQ6)
T3 sequence: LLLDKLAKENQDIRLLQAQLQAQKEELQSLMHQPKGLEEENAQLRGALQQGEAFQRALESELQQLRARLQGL

T4: His-RUFY3 (full length) (UniProt Q7L099)
T4 sequence: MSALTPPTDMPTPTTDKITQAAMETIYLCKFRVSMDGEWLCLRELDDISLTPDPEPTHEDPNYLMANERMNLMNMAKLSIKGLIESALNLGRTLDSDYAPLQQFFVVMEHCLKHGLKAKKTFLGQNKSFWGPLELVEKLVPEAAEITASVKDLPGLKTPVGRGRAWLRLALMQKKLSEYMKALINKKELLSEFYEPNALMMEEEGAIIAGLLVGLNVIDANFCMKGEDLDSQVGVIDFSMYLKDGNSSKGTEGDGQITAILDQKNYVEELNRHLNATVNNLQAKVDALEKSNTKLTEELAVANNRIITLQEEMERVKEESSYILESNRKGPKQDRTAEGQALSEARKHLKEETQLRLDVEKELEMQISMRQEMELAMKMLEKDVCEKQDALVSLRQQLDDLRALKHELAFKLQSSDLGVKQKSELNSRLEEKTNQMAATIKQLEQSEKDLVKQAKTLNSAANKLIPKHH

T5: His-tagged RUN domain of RUFY3 (UniProt Q7L099)
T5 sequence: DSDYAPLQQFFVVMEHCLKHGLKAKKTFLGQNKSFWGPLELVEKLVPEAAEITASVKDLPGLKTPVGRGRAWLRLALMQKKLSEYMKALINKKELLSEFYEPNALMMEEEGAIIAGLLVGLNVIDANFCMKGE


How the values were obtained:
[1] = target: T1, hematopoietic PBX–interacting protein (HPIP), endogenous (human (endogenous in MDA-MB231)); experiment: co-IP; endogenous proteins in MDA-MB231 cells; NP-40 lysis buffer (20 mM Tris pH 8, 137 mM NaCl, 10% glycerol, 1% NP 40, 2 mM EDTA); immunoprecipitation overnight at 4 °C, agarose A/G beads, Western blot
[2] = target: T2, GST-CC2 (coiled-coil domain 2 of HPIP); experiment: pull-down; GST-CC1 or GST-CC2 beads with purified His-Rab5 or His-RUFY3, 1:2 M ratio, room temperature 30 min, 150 mM NaCl, 50 mM Tris pH 8; Western blot; both purified
[3] = target: T3, GST-CC1 (coiled-coil domain 1 of HPIP); experiment: as above
[4] = target: His-Rab5 (full length) (UniProt P20339); experiment: pull-down; His-Rab5 or His-RUFY3 beads with 10 μl in vitro translated 35S-labelled HPIP or its CC deletion mutants; binding buffer 25 mM Tris–HCl pH 8, 50 mM NaCl, 10% glycerol, 0.1% NP 40; five washes; SDS-PAGE and autoradiography; only the target purified
[5] = target: T4, His-RUFY3 (full length); experiment: as above
[6] = target: T5, His-tagged RUN domain of RUFY3; experiment: pull-down; in vitro pull-down of HPIP with His-tagged wt RUFY3 and RUFY3 domains (CC, RUN, FYVE); conditions not given
[7] = target: T4, His-RUFY3 (full length); experiment: as above

Molecule	binding [1]	binding [2]	binding [3]	also measured
Rab5, endogenous (from UniProt P20339 1-215)	binds	–	–	–
His-Rab5 (full length) (from UniProt P20339 1-215)	–	no binding	binds	–
RUN FYVE domain–containing protein 3 (RUFY3), endogenous (protein, UniProt Q7L099 1-469) MSALTPPTDMPTPTTDKITQAAMETIYLCKFRVSMDGEWLCLRELDDISLTPDPEPTHEDPNYLMANERMNLMNMAKLSIKGLIESALNLGRTLDSDYAPLQQFFVVMEHCLKHGLKAKKTFLGQNKSFWGPLELVEKLVPEAAEITASVKDLPGLKTPVGRGRAWLRLALMQKKLSEYMKALINKKELLSEFYEPNALMMEEEGAIIAGLLVGLNVIDANFCMKGEDLDSQVGVIDFSMYLKDGNSSKGTEGDGQITAILDQKNYVEELNRHLNATVNNLQAKVDALEKSNTKLTEELAVANNRIITLQEEMERVKEESSYILESNRKGPKQDRTAEGQALSEARKHLKEETQLRLDVEKELEMQISMRQEMELAMKMLEKDVCEKQDALVSLRQQLDDLRALKHELAFKLQSSDLGVKQKSELNSRLEEKTNQMAATIKQLEQSEKDLVKQAKTLNSAANKLIPKHH	binds	–	–	–
wtHPIP, in vitro translated, S35-Met labelled (protein, UniProt Q96AQ6 1-731, 35S-methionine labelled) MASCPDSDNSWVLAGSESLPVETLGPASRMDPESERALQAPHSPSKTDGKELAGTMDGEGTLFQTESPQSGSILTEETEVKGTLEGDVCGVEPPGPGDTVVQGDLQETTVVTGLGPDTQDLEGQSPPQSLPSTPKAAWIREEGRCSSSDDDTDVDMEGLRRRRGREAGPPQPMVPLAVENQAGGEGAGGELGISLNMCLLGALVLLGLGVLLFSGGLSESETGPMEEVERQVLPDPEVLEAVGDRQDGLREQLQAPVPPDSVPSLQNMGLLLDKLAKENQDIRLLQAQLQAQKEELQSLMHQPKGLEEENAQLRGALQQGEAFQRALESELQQLRARLQGLEADCVRGPDGVCLSGGRGPQGDKAIREQGPREQEPELSFLKQKEQLEAEAQALRQELERQRRLLGSVQQDLERSLQDASRGDPAHAGLAELGHRLAQKLQGLENWGQDPGVSANASKAWHQKSHFQNSREWSGKEKWWDGQRDRKAEHWKHKKEESGRERKKNWGGQEDREPAGRWKEGRPRVEESGSKKEGKRQGPKEPPRKSGSFHSSGEKQKQPRWREGTKDSHDPLPSWAELLRPKYRAPQGCSGVDECARQEGLTFFGTELAPVRQQELASLLRTYLARLPWAGQLTKELPLSPAFFGEDGIFRHDRLRFRDFVDALEDSLEEVAVQQTGDDDEVDDFEDFIFSHFFGDKALKKRSGKKDKHSQSPRAAGPREGHSHSHHHHHRG	–	–	–	binding [4]: binds; binding [5]: binds
His-RUFY3 (full length) (protein, UniProt Q7L099 1-469) MSALTPPTDMPTPTTDKITQAAMETIYLCKFRVSMDGEWLCLRELDDISLTPDPEPTHEDPNYLMANERMNLMNMAKLSIKGLIESALNLGRTLDSDYAPLQQFFVVMEHCLKHGLKAKKTFLGQNKSFWGPLELVEKLVPEAAEITASVKDLPGLKTPVGRGRAWLRLALMQKKLSEYMKALINKKELLSEFYEPNALMMEEEGAIIAGLLVGLNVIDANFCMKGEDLDSQVGVIDFSMYLKDGNSSKGTEGDGQITAILDQKNYVEELNRHLNATVNNLQAKVDALEKSNTKLTEELAVANNRIITLQEEMERVKEESSYILESNRKGPKQDRTAEGQALSEARKHLKEETQLRLDVEKELEMQISMRQEMELAMKMLEKDVCEKQDALVSLRQQLDDLRALKHELAFKLQSSDLGVKQKSELNSRLEEKTNQMAATIKQLEQSEKDLVKQAKTLNSAANKLIPKHH	–	binds	binds	–
HPIP used in the in vitro pull-down with RUFY3 domains (Figure 4I) (protein, UniProt Q96AQ6 1-731) MASCPDSDNSWVLAGSESLPVETLGPASRMDPESERALQAPHSPSKTDGKELAGTMDGEGTLFQTESPQSGSILTEETEVKGTLEGDVCGVEPPGPGDTVVQGDLQETTVVTGLGPDTQDLEGQSPPQSLPSTPKAAWIREEGRCSSSDDDTDVDMEGLRRRRGREAGPPQPMVPLAVENQAGGEGAGGELGISLNMCLLGALVLLGLGVLLFSGGLSESETGPMEEVERQVLPDPEVLEAVGDRQDGLREQLQAPVPPDSVPSLQNMGLLLDKLAKENQDIRLLQAQLQAQKEELQSLMHQPKGLEEENAQLRGALQQGEAFQRALESELQQLRARLQGLEADCVRGPDGVCLSGGRGPQGDKAIREQGPREQEPELSFLKQKEQLEAEAQALRQELERQRRLLGSVQQDLERSLQDASRGDPAHAGLAELGHRLAQKLQGLENWGQDPGVSANASKAWHQKSHFQNSREWSGKEKWWDGQRDRKAEHWKHKKEESGRERKKNWGGQEDREPAGRWKEGRPRVEESGSKKEGKRQGPKEPPRKSGSFHSSGEKQKQPRWREGTKDSHDPLPSWAELLRPKYRAPQGCSGVDECARQEGLTFFGTELAPVRQQELASLLRTYLARLPWAGQLTKELPLSPAFFGEDGIFRHDRLRFRDFVDALEDSLEEVAVQQTGDDDEVDDFEDFIFSHFFGDKALKKRSGKKDKHSQSPRAAGPREGHSHSHHHHHRG	–	–	–	binding [6]: no binding; binding [7]: binds

Source: article PMC10641178
